# Laboratory results as given in the supplement of paper PMC9446081.
# Among all 39,000 compounds or so, about 220 (0.56%) showed activity. The list shows a part of the results.
# System: Escherichia coli K-12 BW25113
# Assay: relative growth (OD600 normalised to plate interquartile mean) (fraction); higher = less growth inhibition, active = 0.2 or less
# Details: 50 µM; LB; incubation time: overnight (16-24 h)
# 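Also: static incubation at 37 °C against the wild-type strain, values averaged over two biological replicates.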
row,SMILES,relative growth
1,C[C@H]1CN([C@@H](C)CO)C(=O)c2cccc(NS(C)(=O)=O)c2O[C@@H]1CN(C)C(=O)Nc1ccc2c(c1)OCO2,inactive: 1.01
2,C[C@H]1CCCCO[C@@H](CN(C)C(=O)Nc2ccc(C(F)(F)F)cc2)[C@@H](C)CN([C@@H](C)CO)C(=O)c2cc(NS(=O)(=O)c3cn(C)cn3)ccc2O1,inactive: 1.01
3,Cc1noc(C)c1S(=O)(=O)Nc1ccc2c(c1)CC(=O)N([C@@H](C)CO)C[C@H](C)[C@H](CN(C)C(=O)Nc1ccccc1)O2,inactive: 0.999
4,Cc1noc(C)c1S(=O)(=O)Nc1ccc2c(c1)C(=O)N([C@H](C)CO)C[C@@H](C)[C@@H](CN(C)S(=O)(=O)c1cn(C)cn1)OCCCC[C@@H](C)O2,inactive: 1
5,C[C@@H]1CN([C@@H](C)CO)C(=O)Cc2cc(NC(=O)CCCN(C)C)ccc2O[C@H]1CN(C)S(C)(=O)=O,inactive: 1
6,C[C@H]1CN([C@@H](C)CO)C(=O)c2cc(NC(=O)Cn3cnnn3)ccc2O[C@@H]1CN(C)Cc1ccc(Cl)c(Cl)c1,inactive: 0.992
7,C[C@@H]1CCCCO[C@@H](CN(C)Cc2ccc(C(F)(F)F)cc2)[C@@H](C)CN([C@@H](C)CO)C(=O)c2cc(NC(=O)c3ccccc3)ccc2O1,inactive: 1.02
8,C[C@@H]1CN([C@@H](C)CO)C(=O)c2cc(NS(=O)(=O)c3ccccc3)ccc2O[C@@H](C)CCCCO[C@@H]1CN(C)C(=O)Nc1ccccc1,inactive: 1.01
9,CN(C)C1CCN(C(=O)c2cnc(-c3noc4cc(-c5cccc(C(F)(F)F)c5)ccc34)s2)CC1,inactive: 0.884
10,Nc1nc(F)nc2c1ncn2C1OC(COP(=O)(O)O)C(O)C1O (stereo not drawn),inactive: 0.541
11,C[C@H]1CN([C@@H](C)CO)C(=O)Cc2cc(NS(=O)(=O)c3ccccc3)ccc2O[C@@H]1CN(C)Cc1ccncc1,inactive: 0.932
12,C[C@H]1CN([C@@H](C)CO)C(=O)c2cc(NS(=O)(=O)c3ccc(F)cc3)ccc2O[C@@H]1CN(C)Cc1ccc(-c2ccccc2)cc1,inactive: 1.02
13,COc1ccc(S(=O)(=O)Nc2ccc3c(c2)CC(=O)N([C@@H](C)CO)C[C@@H](C)[C@@H](CN(C)S(=O)(=O)c2ccc(F)cc2)O3)cc1,inactive: 1.01
14,C[C@@H]1CN([C@H](C)CO)C(=O)c2cc(NS(C)(=O)=O)ccc2O[C@@H]1CN(C)S(=O)(=O)c1ccc(Cl)cc1,inactive: 1.01
15,C[C@@H]1CN([C@H](C)CO)C(=O)Cc2cc(NS(=O)(=O)c3cccs3)ccc2O[C@@H]1CN(C)S(C)(=O)=O,inactive: 0.999
16,Cc1noc(C)c1NC(=O)N(C)C[C@@H]1Oc2ncc(C#CC(C)(C)O)cc2C(=O)N([C@H](C)CO)C[C@@H]1C,inactive: 1
17,C[C@@H]1CN([C@@H](C)CO)C(=O)c2cc(C#CC3CCCC3)cnc2O[C@@H]1CN(C)S(=O)(=O)c1cccc(F)c1,inactive: 1.02
18,C[C@H](CO)N1C[C@H](C)[C@H](CN(C)C(=O)Nc2ccc3c(c2)OCO3)Oc2ccc(NC(=O)C3CC3)cc2C1=O,inactive: 1
19,CC(C)NC(=O)Nc1ccc2c(c1)CC(=O)N([C@H](C)CO)C[C@H](C)[C@@H](CN(C)S(=O)(=O)c1ccc(F)cc1)O2,inactive: 0.992
20,O=C(CN1CCOCC1)NCC[C@@H]1CC[C@H](NC(=O)Nc2ccccc2)[C@H](CO)O1,inactive: 1.02

row,SMILES,relative growth
1,COc1ccc(S(=O)(=O)N(C)C[C@@H]2OCCCC[C@@H](C)Oc3ccc(NC(=O)Nc4ccc5c(c4)OCO5)cc3C(=O)N([C@@H](C)CO)C[C@H]2C)cc1,inactive: 1.02
2,O=C(CCNc1n[nH]c(=O)[nH]c1=O)NCc1ccco1,inactive: 0.998
3,COc1ccc(-n2nc(CCC(=O)N(C)O)cc2-c2ccc(Cl)cc2)cc1,inactive: 0.861
4,CN(C)Cc1cn(CC[C@@H]2CC[C@H](NC(=O)Cc3cccnc3)[C@@H](CO)O2)nn1,inactive: 1
5,C[C@H](CO)N1C[C@H](C)[C@@H](CN(C)C(=O)Nc2cccc3ccccc23)Oc2ccc(NC(=O)Nc3ccc4c(c3)OCO4)cc2CC1=O,inactive: 0.99
6,O=C(O)c1cc2c([nH]c1=O)CCC[C@@H]2O,inactive: 1.02
7,CCN1CCN(C(=O)/C=C\C(=O)O)CC1,inactive: 0.894
8,CC(C)NC(=O)[C@@]1(c2ccc([N+](=O)[O-])cc2)CC(=O)N(CC23CC4CC(CC(C4)C2)C3)[C@@H]1c1ccc(CO)cc1,inactive: 1.03
9,C[C@@H]1CN([C@H](C)CO)C(=O)c2cc(NC(=O)Nc3ccc(F)cc3)ccc2O[C@@H](C)CCCCO[C@@H]1CN(C)Cc1ccc(Cl)c(Cl)c1,inactive: 1.02
10,C[C@H]1CN([C@@H](C)CO)C(=O)c2cc(-c3cccnc3)cnc2O[C@@H]1CN(C)Cc1ccc(Oc2ccccc2)cc1,inactive: 1.02
11,CC(C)CC(=O)Nc1cncc(-c2ccc3[nH]nc(-c4nc5cncc(-c6cccc(F)c6)c5[nH]4)c3c2)c1,inactive: 1.04
12,Cc1noc(C)c1NC(=O)Nc1cccc2c1O[C@H](CN(C)Cc1ccc(-c3ccccc3)cc1)[C@H](C)CN([C@@H](C)CO)C2=O,inactive: 1
13,C[C@H](CO)N1C[C@H](C)[C@H](CN(C)Cc2ccncc2)OCCCC[C@H](C)Oc2ccc(NC(=O)Nc3ccc(C(F)(F)F)cc3)cc2C1=O,inactive: 0.971
14,CC(C)(C)[S@@](=O)N1Cc2cc(C(=O)N3CCCCC3)nc(-c3cccc(C4=CCCC4)c3)c2[C@H]1CCO,inactive: 1.01
15,CC1(C)CC(=O)c2c(C(F)(F)F)nn(-c3ccc(C(N)=O)c(O[C@H]4CC[C@H](N)CC4)c3)c2C1,inactive: 0.996
16,Cc1ccccc1S(=O)(=O)N1C[C@@H](O)COC[C@H]2O[C@H](CC(=O)NCCc3ccccc3)CC[C@@H]21,inactive: 1.05
17,C[C@@H]1CN([C@H](C)CO)C(=O)c2cc(NS(=O)(=O)c3ccccc3)ccc2O[C@@H]1CN(C)C(=O)Nc1cccc2ccccc12,inactive: 1.01
18,CN1C(=O)c2cc(NC(=O)C3CCC3)ccc2OC[C@H]2O[C@@H](CC(=O)NCCc3ccncc3)CC[C@@H]21,inactive: 1.02
19,CO[C@H]1CN(C)C(=O)c2ccc(NS(=O)(=O)c3ccccc3C)cc2OC[C@@H](C)N(S(C)(=O)=O)C[C@@H]1C,inactive: 1.02
20,COc1ccc(S(=O)(=O)Nc2ccc3c(c2)CC(=O)N([C@H](C)CO)C[C@@H](C)[C@@H](CN(C)S(=O)(=O)c2c(C)noc2C)O3)cc1,inactive: 1.01

row,SMILES,relative growth
1,Cc1ccc(S[C@]2(C(=O)NCC(F)(F)F)CC(=O)N(C3CCCCC3)[C@@H]2c2ccc(CO)cc2I)cc1,inactive: 1.03
2,C[C@H]1CN([C@@H](C)CO)C(=O)c2cc(NS(=O)(=O)c3ccccc3)ccc2O[C@H]1CN(C)S(=O)(=O)c1cn(C)cn1,inactive: 0.981
3,COCCCNC(=O)[C@@]1(Sc2ccc(C)cc2)CC(=O)N(C2CCCCC2)[C@@H]1c1ccc(CO)cc1I,inactive: 1.01
4,COCC(=O)Nc1ccc2c(c1)OC[C@@H](C)N(C(=O)c1ccccc1F)C[C@H](C)[C@@H](OC)CN(C)C2=O,inactive: 0.951
5,C[C@H]1CN([C@@H](C)CO)C(=O)Cc2cc(NC(=O)Cc3cn(C)c4ccccc34)ccc2O[C@@H]1CN(C)Cc1ccc(Cl)c(Cl)c1,inactive: 1.01
6,C[C@@H]1CN([C@H](C)CO)C(=O)c2cccc(NC(=O)Nc3ccccc3)c2O[C@@H]1CN(C)S(=O)(=O)c1cn(C)cn1,inactive: 0.991
7,C[C@H](CO)N1C[C@H](C)[C@@H](CN(C)C(=O)Nc2ccc(C(F)(F)F)cc2)Oc2c(NC(=O)CCCCCC(=O)Nc3ccccc3N)cccc2C1=O,inactive: 1
8,Cc1ccc(S(=O)(=O)N(C)C[C@H]2OCCCC[C@H](C)Oc3ccc(NC(=O)NC4CCCCC4)cc3C(=O)N([C@@H](C)CO)C[C@H]2C)cc1,inactive: 1.02
9,Cc1noc(C)c1NC(=O)N(C)C[C@H]1OCCCC[C@H](C)Oc2ccc(NS(=O)(=O)c3ccc(Cl)cc3)cc2C(=O)N([C@@H](C)CO)C[C@@H]1C,inactive: 1.01
10,COc1ccc(CN(C)C[C@@H]2OCCCC[C@H](C)Oc3ccc(NC(=O)Nc4ccc(OC)cc4)cc3C(=O)N([C@H](C)CO)C[C@H]2C)cc1,inactive: 0.986
11,C[C@H]1CN([C@@H](C)CO)C(=O)Cc2cc(NC(=O)CCCCCC(=O)Nc3ccccc3N)ccc2O[C@@H]1CN(C)C(=O)Nc1ccccc1,inactive: 0.951
12,CN1C(=O)c2cc(NC(=O)C3CCC3)ccc2OC[C@@H]2O[C@@H](CC(=O)NCCc3ccncc3)CC[C@H]21,inactive: 1.01
13,CO[C@H](CN(C)S(=O)(=O)c1ccc(F)cc1)[C@H](C)CN([C@@H](C)CO)S(=O)(=O)c1cccc(Cl)c1,inactive: 1.05
14,C[C@H](CO)N1C[C@H](C)[C@@H](CN(C)S(=O)(=O)c2cn(C)cn2)OCCCC[C@H](C)Oc2ccc(N(C)C)cc2C1=O,inactive: 0.994
15,CC1OC(OC2C(O)CC(OC3C(O)CC(OC4CCC5(C)C(CCC6C5CC(O)C5(C)C(C7=CC(=O)OC7)CCC65O)C4)OC3C)OC2C)CC(O)C1O (stereo not drawn),inactive: 1.16
16,C[C@@H]1CN([C@H](C)CO)S(=O)(=O)c2ccc(C#Cc3ccccc3F)cc2O[C@@H]1CN(C)C(=O)c1ccc2c(c1)OCO2,inactive: 1.02
17,C[C@@H]1CCCCO[C@@H](CN(C)C(=O)Nc2ccc(F)cc2)[C@H](C)CN([C@H](C)CO)C(=O)c2cc(NC(=O)Nc3cccc4ccccc34)ccc2O1,inactive: 1.02
18,Cc1noc(C)c1NC(=O)Nc1ccc2c(c1)C(=O)N([C@H](C)CO)C[C@H](C)[C@H](CN(C)S(=O)(=O)c1ccc(F)cc1)OCCCC[C@H](C)O2,inactive: 0.987
